Experimental data as given in PubChem BioAssay AID1508624 (National Center for Advancing Translational Sciences (NCATS), 2021).
Hit rate of the full screen: of about 48,000 compounds, about 120 (0.25%) were called active. Not shown: some 4% with an inconclusive outcome. Calls come from the whole dose curve; as a rule, active = well fitted activation curve with a large enough effect; inconclusive = small, poorly fitted or top-dose-only effect, or another doubt; inactive = no such curve, though single readings can be large or run the other way. This is one part of the list.

test: Primary qHTS for Identification of Small Molecule Activators of Huntingtin-Antisense Promoter Activity; conditions: HEK293 HTT-AS promoter firefly luciferase reporter, 24 h; series mostly up to 57.5 µM; activity change, positive = activation: at the top concentration; note: nearly all actives have a fitted effect of over 55% in size
How it was run: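 HEK293 cells carrying firefly luciferase reporters were seeded at 2,500 per well in Opti-MEM and cultured for 24 h. They were then treated with compounds at up to 57.5 uM final for 24 h at 37 degrees C before Dual-Glo luminescence readout.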

Activity change, positive = activation, inactive:
Cc1ccc(NC(=O)c2cc(-c3ccc(Br)s3)nc3ccccc23)cc1F -0.401%, COCCn1c(=NC(=O)c2ccc3c(c2)OCCO3)sc2cc(C(=O)OC)ccc21 -24.5%, COc1ccc(C(=O)OC2=C(C(=O)c3ccccc3)N(C)S(=O)(=O)c3ccccc32)cc1OC -8.25%, COc1ccc(-n2ncc3c(NCCC4=CCCCC4)ncnc32)cc1 21.4%, Cc1noc(/C=C/c2ccco2)c1S(=O)(=O)N1CCC(C(=O)Nc2ccc(F)c(Cl)c2)CC1 -45.3%, Cc1ccccc1-c1nc(CS(=O)(=O)CC(=O)NCc2cccc(Cl)c2)c(C)o1 -12.8%, CCC1=Nc2cc(C(=O)NC3CCCC3)ccc2Sc2ccc(Br)cc21 -46.2%, Cc1ccc(N2CC(C(=O)Nc3ccc(Br)cc3)CC2=O)cc1 (stereo unspecified) -1.29%, Cc1ccc2c(=O)c(C(=O)c3cccc(Cl)c3)cn(CC(=O)NCc3ccc(F)cc3)c2n1 -14.4%, C=Cc1ccc(CN2C(=O)N(c3cccc(Cl)c3)S(=O)(=O)c3ccccc32)cc1 -18.1%, COc1ccc(C(=O)n2nc(-c3ccco3)nc2NCc2cccs2)cc1 6.74%, COC(=O)c1ccccc1NC(=O)Cn1nnc2sc(-c3ccccc3)cc2c1=O -2.46%, CCOc1ccccc1NC(=O)NCCn1c(=O)oc2ccc(C)cc21 -19.1%, COc1ccccc1CNS(=O)(=O)c1cc2c3c(c1)CCN3C(=O)CC2 -10.8%, COc1ccc(-c2nc(-c3ccccc3)c(-c3ccc(O)cc3)[nH]2)cc1 -16.6%, COc1ccccc1C(=O)NCCn1cc(SCc2ccccc2Cl)c2ccccc21 -33%, O=C(/C=C/c1ccc(F)cc1)Nc1nc2n(n1)C(c1ccc(Cl)cc1)C=C(c1ccccc1)N2 (stereo unspecified) -17.2%, COc1ccc(Cn2c(C(=O)O)c(CNC3CCCCCC3)c3ccc(OC)cc32)cc1 -25.7%, COc1ccc(OC)c(CNC(=O)CCn2c(=O)c3cccn3c3ccc(F)cc32)c1 -13.5%, Cc1ccc2sc(N3CCN(C(=O)CCS(=O)(=O)c4ccc(F)cc4)CC3)nc2c1C -38.7%, CCOC(=O)c1ccc(NC(=O)c2ncn(-c3ccccc3)n2)cc1 28%, COc1ccc(N2CCN(C(=O)CCn3c(=O)c4cccn4c4cccnc43)CC2)cc1 -12.4%, CC(NC(=O)Nc1cc(Cl)ccc1Cl)c1c(-n2cccc2)sc2c1CCCC2 (stereo unspecified) -18.9%, CCN(CC)c1ccc(C(=O)N2CCC(c3c[nH]c4ccccc34)(c3c[nH]c4ccccc34)CC2)cc1 -23%, O=C(NC1CCN(Cc2ccccc2)CC1)c1ccc(Cn2c(=O)c3ccccc3n(Cc3ccccc3)c2=O)cc1 -22.9%, Cc1ccc(-c2nc(-c3cc4cccc(OCc5cccc(C)c5)c4oc3=O)no2)cc1 -1.64%, CCc1c(C)nc2nncn2c1Nc1ccc(C(C)C)cc1 -20.4%, Cc1ccc(CNC(=O)c2ccc(-n3cnc4cccnc43)cc2)cc1 -9.11%, CCc1ccc(NC(=O)Cn2c3ncccc3c(=O)n2-c2ccc(C)c(C)c2)cc1 -1.09%, Cc1ccc(NC(=O)/C(C#N)=C/c2cc(C)n(-c3ccc(F)cc3)c2C)cc1C -3.12%, O=C(c1ccc2c(c1)N(Cc1ccccc1F)C(=O)c1ccccc1S2=O)N1CCN(c2ccccc2)CC1 (stereo unspecified) -33.5%, O=C(NCc1cccc(Cl)c1)C(=O)Nc1ccc2nc3n(c(=O)c2c1)CCCCC3 -9.4%, CCCCN1CCCc2cc(CN(CCCN3CCOCC3)C(=O)Nc3ccc(OCC)cc3)ccc21 -27.1%, COc1ccc(C)cc1Nc1c2c(nc3nc(-c4cccs4)nn13)CCCC2 -8.58%, COc1cccc(CN2CCc3nc(SCC(=O)Nc4ccccc4)[nH]c(=O)c3C2)c1 -22.6%, CC(C)C[C@H](NC(=O)c1cc2ccccc2s1)C(=O)N1CCN(C(=O)[C@H](CO)NS(=O)(=O)c2ccc(Cl)cc2Cl)CC1 -23.9%, CCN(CC)S(=O)(=O)c1ccc2c(c1)N(CC(=O)N1CCN(c3ccccc3F)CC1)C(=O)CO2 -25.5%, Cc1ccc(NC(=O)N2CCc3cc(S(=O)(=O)N4CCC(C)CC4)ccc32)cc1C -1.15%, CCOC(=O)c1ccc(Nc2ncnc3c2cnn3-c2cccc(Cl)c2)cc1 14.5%, CCN(C(=O)c1cc2c(s1)-c1ccccc1OC2)c1cc(Cl)ccc1OC -28.8%, Cc1ccccc1NS(=O)(=O)c1nnc(NC(=O)c2ccccc2C)s1 -14%, O=S(=O)(NCCS(=O)(=O)N1CCN(c2ccccc2F)CC1)c1ccc(Cl)cc1 -16.6%, CC(NC(=O)Nc1ccccc1C(F)(F)F)c1c(-n2cccc2)sc2c1CCCC2 (stereo unspecified) -13.5%, COc1ccc(NCc2cc3cc4c(cc3n(CC(=O)Nc3ccc(C)cc3)c2=O)OCO4)cc1 10.8%, COc1ccccc1CNC(=O)Cn1ncc2c3ccccc3n(Cc3ccccc3C)c2c1=O -9.08%, CCOC(=O)c1ccc(NS(=O)(=O)c2ccc(Br)s2)cc1 -17.1%, COc1ccccc1NC(=O)CSc1oc(-c2cccs2)nc1S(=O)(=O)c1ccc(Br)cc1 -6.68%, CN(C(=O)CSc1nc2c(c(=O)[nH]1)CCCC2)c1ccccc1 -3.1%, CCOc1ccccc1NC(=O)C1CCN(S(=O)(=O)c2ccccc2)CC1 -8.18%, COc1ccc(-c2nc(SCC(=O)Nc3ccc4c(c3)OCO4)c(-c3ccc(OC)cc3)[nH]2)cc1 -30.6%, CCOc1ccc(S(=O)(=O)N2CCN(c3c(C)cccc3C)CC2)c2ccccc12 -25.3%, Cc1cc(C)cc(OC(=O)c2snnc2C)c1 -18.1%, O=C(NCCc1csc(-c2cccc(F)c2)n1)c1cccs1 -10.9%, O=C(Cc1ccccc1)Nc1sc2c(c1C(=O)Nc1ccc(Cl)cc1)CCCC2 -30%, Cc1cccc(NC(=O)CSc2nc3c([nH]c4ccccc43)c(=O)n2C)c1C -7.3%, N#C/C(=C\c1ccc(Cl)cc1)c1nc2ccccc2[nH]1 10.8%, Brc1ccccc1-c1ccccc1 -4.74% [at 116 µM, percent change from vehicle, -100% = no light], CC(C)CCN(Cc1ccco1)C(=O)c1cc2c(Cl)nc3ccccc3c2s1 -29.5%, Cc1ccc(S(=O)(=O)CC(=O)Nc2sc3c(c2C#N)CCCCC3)cc1 -10.5%, COc1ccc(-c2noc(CSCC(=O)Nc3cccc(C(F)(F)F)c3)n2)cc1OC -10.6%, CCOc1ccc(C2Nc3ccccc3-c3nnc(SCc4ccccc4)nc3O2)cc1OC (stereo unspecified) 17.3%, CCCOc1ccc(-c2nn(-c3ccccc3)cc2C2NC(=O)NC(C)=C2C(=O)OC)cc1C (stereo unspecified) -15.4%, CCc1cccc(NC(=O)c2ccc(CN3C(=O)C(C)=C(c4ccc(OC)cc4)S3(=O)=O)cc2)c1 -36.9%, CCOc1ccccc1NC(=O)Nc1nnc(N2CCCCCC2)s1 12.6%, Cc1ccccc1CNC(=O)C1CCCN(S(=O)(=O)N(C)c2ccc(F)cc2)C1 (stereo unspecified) -26.2%, CCC(=O)N1CCc2cc(Br)cc(S(=O)(=O)CCC(=O)NCCc3ccc(Cl)cc3)c21 -0.56%, COc1cc(NC(=O)Cn2ncc3c([nH]c4ccc(C)cc43)c2=O)cc(OC)c1OC -23.1%, COc1cc(C(=O)Nc2ccc3oc(-c4ccccc4)nc3c2)cc(OC)c1OC -37.7%, Cn1c2ccccc2c2c(C(=O)N3CCN(c4ccc(F)cc4)CC3)cn(C3CCCCC3)c(=O)c21 -25.8%, COc1cc(Cl)c(C)cc1NC(=O)CSc1ncc(S(=O)(=O)c2ccc(C(C)(C)C)cc2)c(=O)[nH]1 -8.6%, O=C1Nc2ccc(S(=O)(=O)Nc3ccccc3O)c3cccc1c23 2.59%, CCOc1ccccc1Nc1cc(-c2ccccc2)nc(C)n1 -13.4%, COc1ccc(NC(=O)CSc2nnc(-c3cccs3)o2)cc1 27.3%, CC(C)(Oc1ccc(C2CC2(Cl)Cl)cc1)C(=O)O (stereo unspecified), Cc1ccc(NC(=O)CSc2nc3c([nH]c4ccccc43)c(=O)n2-c2ccccc2)c(C)c1 -24.1%, CCCCN1CCc2nc(N3CCN(c4ncccn4)CC3)ncc2C1 -14.1%, CCN(c1ccccc1)S(=O)(=O)c1ccc(NC(=O)c2cc(=O)c3cc(C)c(C)cc3o2)cc1 0%, Cc1cccc(NS(=O)(=O)c2ccc3c(c2)CCN3C(=O)CCC(=O)O)c1C 19.4%, COc1cccc(-n2cc(C(=O)NCc3cccc(Cl)c3)c3ccccc3c2=O)c1 -25.7%, COc1ccccc1N1CCN(C(=O)Cn2c(=O)nc(-c3ccccc3)c3cc(Cl)ccc32)CC1 8.63%, CCOc1ccc(NC(=O)c2ccc(-c3ccccc3)s2)cc1 3.22%, Cc1nc2c(-c3ccc(F)cc3)c(C)nn2c(C)c1CCC(=O)NCc1ccc(Cl)cc1 -6.51%, CCOc1ccc(N2C(=O)N(Cc3ccc(C)cc3C)c3ccccc3S2(=O)=O)cc1 -17.3%, COc1ccccc1N1CCN(CC(O)COc2cc(C)cc(C)c2)CC1 (stereo unspecified) -11.6%, COc1cccc(CNC(=O)CCCN2C(=O)CSc3c2c(C)nn3-c2ccccc2)c1 -8.36%, NC(=O)[C@@H](CCC(F)(F)F)N(Cc1ccc(-c2ncon2)cc1F)S(=O)(=O)c1ccc(Cl)cc1 -27.7%, O=c1c2ccccc2n(Cc2cccc(F)c2)c(=O)n1Cc1ccccc1Cl -30.7%, COc1ccc(-c2ccc3c(N)c(C(=O)Nc4cc(F)ccc4C)sc3n2)cc1 -27.9%, Cc1cccc(Nc2c3c(nc4nncn24)CCC3)c1 -25.4%, CCn1cc(C(=O)N2CCN(c3cc(C)ccc3C)CC2)c(=O)c2cc(S(=O)(=O)N(C)C3CCCCC3)ccc21 -10.6%, CN1CC(=O)NC1=NC(=O)Nc1cccc(Cl)c1 -0.525%, Cc1ccccc1Nc1c(-c2ccc(N3CCOCC3)cc2)nc2ncccn12 37.2%, Cc1c(CNC(C)CCc2ccccc2)c(C(=O)O)c(C)n1Cc1ccc(F)cc1Cl (stereo unspecified) -19%, CC1=C(C(=O)O)N2C(=O)[C@@H](NC(=O)[C@H](N)c3ccc(O)cc3)[C@H]2SC1 1.56%, O=C(Nc1ccccc1-c1nc2ccccc2s1)c1cc(Cl)cc(Cl)c1 7.03%, O=C(c1ccccc1Cl)n1nc(-c2cccnc2)nc1NCc1ccc(F)cc1 -4.99%
